Test results taken from the antibiotic and cytotoxicity screens of Wong et al. (2023).
The other results are listed elsewhere or left out.

Key:
HSkMC = human skeletal muscle cells; assay: cytotoxicity call (relative viability < 0.9); conditions: 10 µM
HepG2 = assay: cytotoxicity call (relative viability < 0.9); conditions: 10 µM
S. aureus RN4220 = assay: growth inhibition call (relative growth <= 0.2); conditions: 50 µM

| Compound | cytotoxicity call (HSkMC) | cytotoxicity call (HepG2) | growth inhibition call (S. aureus RN4220) |
| --- | --- | --- | --- |
| C[C@@H]1CN([C@H](C)CO)C(=O)c2cccc(NC(=O)CCCCCC(=O)Nc3ccccc3N)c2O[C@H]1CN(C)Cc1ccc(Oc2ccccc2)cc1 | inactive | inactive | inactive |
| CO[C@@H]1[C@@H](OC(=O)c2ccc(C)[nH]2)[C@@H](O)[C@@H](Oc2ccc3c(c2C)OC(=O)[C@H](NC(=O)c2[nH]cc(CC(=O)Nc4cc5ccc(O[C@@H]6OC(C)(C)[C@H](OC)[C@@H](OC(=O)c7ccc(C)[nH]7)[C@H]6O)c(C)c5oc4=O)c2C)C3)CC1(C)C | active | inactive | inactive |
| C[C@H]1CN([C@@H](C)CO)C(=O)c2cccc(NS(=O)(=O)c3ccccc3)c2O[C@H]1CN(C)S(=O)(=O)c1ccc(F)cc1 | inactive | inactive | inactive |
| C[N+](C)(C)CCCCNC(=O)[C@H]1C[C@H]2C(=O)N[C@@H](CCCC[N+](C)(C)C)C(=O)N2[C@H]1c1ccc(O)cc1 | inactive | inactive | inactive |
| CCC[C@@H](O)C#Cc1cnc2c(c1)C(=O)N([C@H](C)CO)C[C@H](C)[C@H](CN(C)S(=O)(=O)c1cccc(OC)c1)O2 | inactive | inactive | inactive |
| C[C@@H]1CN([C@@H](C)CO)C(=O)c2cc(NC(=O)CCCN(C)C)ccc2O[C@@H](C)CCCCO[C@@H]1CN(C)S(=O)(=O)c1cn(C)cn1 | inactive | inactive | inactive |
| Cc1cc(C(=O)O)sc1[C@@H](N)C(=O)O | inactive | inactive | inactive |
| COc1cccc(NC(=O)N(C)C[C@H]2Oc3cc(C#Cc4ccncc4)ccc3S(=O)(=O)N([C@H](C)CO)C[C@@H]2C)c1 | inactive | active | inactive |
| CC(=O)N1CCN(C(=O)C(=O)NC[C@H](c2ccc(N(C)C)cc2)N2CCOCC2)CC1 | inactive | inactive | inactive |
| Cc1noc(C)c1NC(=O)Nc1ccc2c(c1)C(=O)N(C)[C@H]1CC[C@H](CC(=O)Nc3ccc4c(c3)CCCC4)O[C@@H]1CO2 | active | inactive | inactive |
| COc1ccccc1C#Cc1cnc2c(c1)C(=O)N([C@@H](C)CO)C[C@@H](C)[C@@H](CN(C)C(=O)CC1CC1)O2 | inactive | inactive | inactive |
| C[C@@H]1CN([C@@H](C)CO)C(=O)c2c(c3ccccc3n2C)-c2ccccc2CO[C@@H]1CN(C)C(=O)Nc1ccc(-c2ccccc2)cc1 | inactive | inactive | inactive |
| C[C@H]1CCCCO[C@H](CN(C)C(=O)Nc2ccc(C(F)(F)F)cc2)[C@@H](C)CN([C@@H](C)CO)C(=O)c2cc(NS(=O)(=O)c3cccs3)ccc2O1 | inactive | inactive | inactive |
| Cc1noc(C)c1S(=O)(=O)Nc1ccc2c(c1)C(=O)N([C@@H](C)CO)C[C@@H](C)[C@@H](CN(C)S(=O)(=O)c1cn(C)cn1)O2 | inactive | inactive | inactive |
| COCC(=O)Nc1ccc2c(c1)OC[C@@H](C)N(C(=O)Cc1cccnc1)C[C@H](C)[C@H](OC)CN(C)C2=O | inactive | inactive | inactive |
| C[C@H](CO)N1C[C@H](C)[C@H](CN(C)Cc2ccccc2)OCCCC[C@H](C)Oc2ccc(NS(=O)(=O)c3ccccc3)cc2C1=O | inactive | inactive | inactive |
| COc1ccc(NC(=O)Nc2cccc3c2O[C@@H](CN(C)C(=O)Nc2cccc4ccccc24)[C@H](C)CN([C@@H](C)CO)C3=O)cc1 | inactive | inactive | inactive |
| Cc1noc(C)c1S(=O)(=O)Nc1ccc2c(c1)C(=O)N([C@H](C)CO)C[C@@H](C)[C@H](CN(C)S(=O)(=O)c1cn(C)cn1)OCCCC[C@@H](C)O2 | inactive | inactive | inactive |
| C[C@@H]1CCCCO[C@@H](CN(C)Cc2ccc3c(c2)OCO3)[C@@H](C)CN([C@@H](C)CO)C(=O)c2cc(NC(=O)Nc3ccc4c(c3)OCO4)ccc2O1 | inactive | active | inactive |
| COc1ccc(CN(C)C[C@H]2OCCCC[C@H](C)Oc3ccc(NC(=O)NC(C)C)cc3C(=O)N([C@H](C)CO)C[C@@H]2C)cc1 | inactive | inactive | inactive |
| C[C@@H]1CCCCO[C@@H](CN(C)C(=O)CCCN(C)C)[C@H](C)CN([C@H](C)CO)C(=O)c2cc(NS(=O)(=O)c3cn(C)cn3)ccc2O1 | inactive | inactive | inactive |
| C[C@@H]1CN([C@H](C)CO)C(=O)c2cc(NC(=O)CCC(F)(F)F)ccc2O[C@@H]1CN(C)Cc1ccc(Cl)c(Cl)c1 | inactive | inactive | inactive |
| C[C@@H]1CN([C@H](C)CO)C(=O)c2cc(NS(=O)(=O)c3ccc(Cl)cc3)ccc2O[C@@H]1CN(C)C(=O)Nc1cccc2ccccc12 | inactive | inactive | inactive |
| O=C(O)[C@@H]1CC(=O)N(Cc2cccnc2)C1 | inactive | inactive | inactive |
| CN1C(=O)c2cc(NS(C)(=O)=O)ccc2OC[C@@H]2O[C@@H](CC(=O)N3CCOCC3)CC[C@@H]21 | inactive | inactive | inactive |
| COC(=O)CCCCCCC(=O)N/N=C/[C@H](O)[C@@H](O)[C@H](O)[C@H](O)CO[C@H]1O[C@H](CO)[C@H](O)[C@H](O)[C@H]1O | inactive | inactive | inactive |
| Cl.NCCc1ccc(O)c(O)c1 | inactive | active | inactive |
